According to PubChem BioAssay AID256 (DTP/NCI, 2004):
Several values for one entry are separate records, joined by “and”; a condition that tells them apart may be missing. Equal entries are not always repeated. Further values from the same series stand in other lists. Inconclusive results and toxic doses are left out. How the source made its calls: active means survival T/C of 150% or more; inactive means T/C below 125% in these data.

Tested on: CD2F1 mice, L1210 leukemia ip, survival T/C
Experiment: NCI In Vivo Anticancer Drug Screen. Data for tumor model L1210 Leukemia (intraperitoneal) in CD2F1 (CDF1) mice
Details: higher = longer survival
Outline: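 Antitumor effect is scored in animals hosting a serially transplanted tumor. Values compare compound-dosed animals against vehicle-only controls as a simple quotient.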

Measured: T/C

S=c1nc[nH]c2nc[nH]c12
inactive: endpoint: mean survival time, dose: 9.38 mg/kg/injection, schedule: Q01DX009 (ip), vehicle: alkali diluted with saline 107 % of control | endpoint: mean survival time, dose: 10.0 mg/kg/injection, schedule: Q01DX005 (ip), vehicle: alkali diluted with saline 112 % of control | endpoint: mean survival time, dose: 10.0 mg/kg/injection, schedule: Q01DX005 (ip), vehicle: alkali diluted with water 110 % of control | endpoint: mean survival time, dose: 20.0 mg/kg/injection, schedule: Q01DX005 (ip), vehicle: sodium bicarbonate 104 % of control and 106 % of control | endpoint: mean survival time, dose: 20.0 mg/kg/injection, schedule: Q01DX009 (ip), vehicle: alkali diluted with water 107 % of control | endpoint: mean survival time, dose: 20.0 mg/kg/injection, schedule: Q03DX003 (ip), vehicle: saline 106 % of control | endpoint: mean survival time, dose: 20.0 mg/kg/injection, schedule: Q04DX003 (ip), vehicle: saline 107 % of control | endpoint: mean survival time, dose: 30.0 mg/kg/injection, schedule: Q04DX003 (ip), vehicle: saline 102 % of control | endpoint: mean survival time, dose: 30.0 mg/kg/injection, schedule: Q## X002 (ip), vehicle: saline 103 % of control | endpoint: mean survival time, dose: 30.0 mg/kg/injection, schedule: Q## X009 (ip), vehicle: saline 107 % of control | endpoint: mean survival time, dose: 32.4 mg/kg/injection, schedule: Q04DX003 (ip), vehicle: alkali diluted with saline 110 % of control | endpoint: mean survival time, dose: 40.0 mg/kg/injection, schedule: Q01DX001 (ip), vehicle: alkali diluted with water 104 % of control and 106 % of control | endpoint: mean survival time, dose: 40.0 mg/kg/injection, schedule: Q01DX005 (ip), vehicle: sodium bicarbonate 107 % of control | endpoint: mean survival time, dose: 50.0 mg/kg/injection, schedule: Q04DX003 (ip), vehicle: alkali diluted with water 112 % of control | endpoint: mean survival time, dose: 54.0 mg/kg/injection, schedule: Q04DX003 (ip), vehicle: alkali diluted with saline 105 % of control | endpoint: mean survival time, dose: 56.25 mg/kg/injection, schedule: Q04DX003 (ip), vehicle: alkali diluted with saline 102 % of control | endpoint: mean survival time, dose: 60.0 mg/kg/injection, schedule: Q## X006 (ip), vehicle: saline 103 % of control | endpoint: mean survival time, dose: 90.0 mg/kg/injection, schedule: Q## X006 (ip), vehicle: saline 110 % of control | endpoint: mean survival time, dose: 112.5 mg/kg/injection, schedule: Q04DX003 (ip), vehicle: alkali diluted with saline 111 % of control | endpoint: mean survival time, dose: 160.0 mg/kg/injection, schedule: Q01DX005 (ip), vehicle: sodium bicarbonate 104 % of control | endpoint: median survival time, dose: 10.0 mg/kg/injection, schedule: Q01DX005 (ip), vehicle: alkali diluted with water 111 % of control | endpoint: median survival time, dose: 36.0 mg/kg/injection, schedule: Q01DX001 (ip), vehicle: alkali diluted with water 108 % of control | endpoint: median survival time, dose: 120.0 mg/kg/injection, schedule: Q01DX009 (ip), vehicle: water 108 % of control
